This is an account of results in publication PMC4336329 (PLoS ONE, 2015).

The whole screen tested about 310,000 compounds, of which about 14,000 (4.5%) showed an effect of 50% or more. Effects have a minus sign here. The list shows a part of the results.
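Note: peak tail current of the secondary pulse compared with the same well before compound.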

Sequence of human ether-à-go-go-related gene (hERG) potassium channel (Q12809 whole entry, looked up): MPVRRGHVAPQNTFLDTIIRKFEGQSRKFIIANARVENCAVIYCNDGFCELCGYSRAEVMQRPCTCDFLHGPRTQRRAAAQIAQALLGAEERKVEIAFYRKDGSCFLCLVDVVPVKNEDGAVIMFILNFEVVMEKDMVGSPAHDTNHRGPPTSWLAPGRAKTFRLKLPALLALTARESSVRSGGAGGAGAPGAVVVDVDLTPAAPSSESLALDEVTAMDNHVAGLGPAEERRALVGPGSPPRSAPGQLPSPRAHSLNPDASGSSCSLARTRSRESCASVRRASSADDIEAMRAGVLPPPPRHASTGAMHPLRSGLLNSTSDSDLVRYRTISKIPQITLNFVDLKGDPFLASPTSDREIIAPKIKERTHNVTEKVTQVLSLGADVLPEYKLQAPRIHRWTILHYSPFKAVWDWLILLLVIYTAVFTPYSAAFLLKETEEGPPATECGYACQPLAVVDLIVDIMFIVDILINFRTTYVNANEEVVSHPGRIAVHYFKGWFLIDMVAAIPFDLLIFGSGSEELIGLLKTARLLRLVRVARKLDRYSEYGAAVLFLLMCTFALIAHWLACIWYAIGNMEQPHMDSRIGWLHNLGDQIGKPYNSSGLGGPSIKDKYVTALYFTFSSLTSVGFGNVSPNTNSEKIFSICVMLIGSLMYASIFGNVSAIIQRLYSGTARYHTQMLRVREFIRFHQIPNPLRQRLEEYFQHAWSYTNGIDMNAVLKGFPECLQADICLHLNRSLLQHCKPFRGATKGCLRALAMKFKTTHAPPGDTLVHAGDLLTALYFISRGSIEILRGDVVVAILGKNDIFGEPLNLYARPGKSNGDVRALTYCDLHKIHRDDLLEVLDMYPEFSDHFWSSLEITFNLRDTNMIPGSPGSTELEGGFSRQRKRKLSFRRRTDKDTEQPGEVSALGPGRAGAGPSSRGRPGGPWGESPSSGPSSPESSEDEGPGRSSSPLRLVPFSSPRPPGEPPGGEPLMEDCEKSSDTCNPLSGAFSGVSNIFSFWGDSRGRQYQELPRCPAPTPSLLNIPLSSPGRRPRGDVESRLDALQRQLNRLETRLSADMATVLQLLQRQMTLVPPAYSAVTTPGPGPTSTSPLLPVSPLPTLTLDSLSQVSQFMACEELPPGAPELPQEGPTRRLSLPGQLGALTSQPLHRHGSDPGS

This assay has as its target human ether-à-go-go-related gene (hERG) potassium channel (human, UniProt Q12809). The experiment in a line: primary screen, population patch clamp on CHO cells stably expressing hERG.
`Cc1ccc2nc(SCc3nc4ccccc4c(=O)[nH]3)[nH]c2c1`: the “hERG current change (%, negative = inhibition) at 10uM” value is given as 6.85%.

As to `COc1ccc(C(=O)NC(C)c2nc3ccccc3n2C)cc1OC` (centres unmarked), the “hERG current change (%, negative = inhibition) at 10uM” value is -22.8%.

For `COc1ccc(C(=O)CSc2nc3ncccc3[nH]2)cc1OC`, the “hERG current change (%, negative = inhibition) at 10uM” value worked out at 4.87%.

For the compound `CC(C)(CNC(=O)c1ccc(S(=O)(=O)Nc2ccc(Cl)cc2)cc1)N1CCOCC1`, the “hERG current change (%, negative = inhibition) at 10uM” value is on record as -25%.

Take `COc1ccc(/C=N/NC(=O)c2nc(-c3ccccc3)cc(-c3ccccc3)n2)cc1OC`: the “hERG current change (%, negative = inhibition) at 10uM” value was -0.291%.

Consider `CS(=O)(=O)N1N=C(c2cccs2)CC1c1ccccc1F` (centres unmarked), for which the “hERG current change (%, negative = inhibition) at 10uM” value is recorded as 20.9%.

On to `O=C(OCC#CCSc1nc2ccccc2s1)c1ccco1`, for which the “hERG current change (%, negative = inhibition) at 10uM” value came to 2.08%.

For the compound `CCN(CC(=O)NCc1ccc(Cl)cc1)C(=O)CSc1ccc(Br)cc1`, the “hERG current change (%, negative = inhibition) at 10uM” value was -79.2%.

In the case of `C/C(=N\NC(=O)C(c1ccccc1)c1ccccc1)c1ccc(O)cc1`, the “hERG current change (%, negative = inhibition) at 10uM” value was -6.4%.

`O=C(N/C=C\c1ccccc1)NCc1ccc(Cl)cc1`: the “hERG current change (%, negative = inhibition) at 10uM” value was 1.95%.

With `Cc1ccc(C(C2=C(O)CC(C)(C)CC2=O)C2C(=O)CC(C)(C)CC2=O)s1` (centres unmarked), the “hERG current change (%, negative = inhibition) at 10uM” value is recorded as 14.9%.

Regarding `CSc1nnc(CCCCCNC(=O)OC(C)(C)C)o1`, the “hERG current change (%, negative = inhibition) at 10uM” value came to 8%.

As for `CCCCn1nc2cc(C(=O)NCc3cc(C(F)(F)F)cc(C(F)(F)F)c3)ccc2c1OCC`, the “hERG current change (%, negative = inhibition) at 10uM” value amounted to 19.7%.

With `Cc1nn(CC(=O)NCc2ccc(Cl)cc2)c(C)c1[N+](=O)[O-]`, the “hERG current change (%, negative = inhibition) at 10uM” value was 10.1%.

In the case of `COc1ccc(-c2cc(C)no2)cc1S(=O)(=O)N(C)Cc1ccco1`, the “hERG current change (%, negative = inhibition) at 10uM” value is listed as -20.3%.

`Cc1[nH]c(=O)[nH]c(=O)c1S(=O)(=O)N1CCN(c2ccccc2F)CC1`: the “hERG current change (%, negative = inhibition) at 10uM” value was 2.33%.

With `Cc1ccc(SCCCCN2CCOCC2)cc1.Cl`, the “hERG current change (%, negative = inhibition) at 10uM” value was -24.6%.

`O=C(CN1CCN(S(=O)(=O)c2ccc(Cl)cc2)CC1)Nc1ccc2c(c1)OCO2`: the “hERG current change (%, negative = inhibition) at 10uM” value is -65%.

In the case of `CCCN(C(=O)CCSc1ccc(F)cc1)c1c(N)n(Cc2ccccc2)c(=O)[nH]c1=O`, the “hERG current change (%, negative = inhibition) at 10uM” value came out at 7.46%.

Regarding `CCN(c1ccc(NC(=O)COC(=O)CCC(=O)c2ccc(F)cc2)cc1)C(C)C`, the “hERG current change (%, negative = inhibition) at 10uM” value was -4.95%.

`CC(=O)Nc1ccc(NC(=O)C2CCN(c3ccc(C(F)(F)F)cn3)CC2)cc1`: the “hERG current change (%, negative = inhibition) at 10uM” value is 22.5%.

With `CN(CCc1ccccn1)C(=O)c1nn2c(C(F)(F)F)cc(-c3ccco3)nc2c1Cl`, the “hERG current change (%, negative = inhibition) at 10uM” value was -47%.

For `CCCSC1=C(C#N)C(c2cccs2)CC(=O)N1` (centres unmarked), the “hERG current change (%, negative = inhibition) at 10uM” value is 3.24%.

Consider `CC(=O)N1CCN=C1SCc1ccc(Br)cc1`, for which the “hERG current change (%, negative = inhibition) at 10uM” value is reported as -25.6%.

As for `O=C(CS(=O)c1ccccc1[N+](=O)[O-])Oc1ccc(Br)cc1` (centres unmarked), the “hERG current change (%, negative = inhibition) at 10uM” value was -30.1%.

On to `COc1ccc(C(=O)N2CCC(n3c(C)nc4cc(F)ccc43)CC2)cc1`, for which the “hERG current change (%, negative = inhibition) at 10uM” value is -73.4%.

As for `Cc1ccc(C(=O)N2CCN(c3ncccn3)CC2)cc1S(=O)(=O)N1CCCCC1`, the “hERG current change (%, negative = inhibition) at 10uM” value is 6.72%.

On to `CCCCn1c(NC(=S)Nc2ccccc2)nc2ccccc21`, for which the “hERG current change (%, negative = inhibition) at 10uM” value amounted to 12.2%.

In the case of `O=C(NCc1n[nH]c(=O)c2ccccc12)C1CC(=O)N(c2ccc(Cl)cc2)C1` (centres unmarked), the “hERG current change (%, negative = inhibition) at 10uM” value is reported as -70.7%.

On to `CCCCn1c(N)c(N(CC)C(=O)c2ccccc2C(F)(F)F)c(=O)[nH]c1=O`, for which the “hERG current change (%, negative = inhibition) at 10uM” value is 16.2%.

Turning to `Cc1ccc(CC(CC(=O)O)C(=O)NCC23CC4CC(CC(C4)C2)C3)cc1` (centres unmarked), the “hERG current change (%, negative = inhibition) at 10uM” value came to 21.9%.

In the case of `CC(C)OC(=O)c1c(-c2ccc(C(C)C)cc2)csc1NC(=O)C1CCCO1` (centres unmarked), the “hERG current change (%, negative = inhibition) at 10uM” value stood at 9.05%.

As for `CCCN(CC(=O)Nc1ccccc1OC)C(=O)Cn1[nH]c(=O)c2ccccc2c1=O`, the “hERG current change (%, negative = inhibition) at 10uM” value is recorded as -11.6%.

As to `CCN(CC)CCCNS(=O)(=O)c1ccc(OC)cc1`, the “hERG current change (%, negative = inhibition) at 10uM” value amounted to 16.5%.

In the case of `O=C(NCc1nnc(SC/C=C/c2ccccc2)o1)c1ccco1`, the “hERG current change (%, negative = inhibition) at 10uM” value was -5.97%.

With `COC(=O)COc1ccc(S(=O)(=O)Nc2ccc3c(c2)OCCO3)cc1C`, the “hERG current change (%, negative = inhibition) at 10uM” value was 6.33%.

`CN(C)S(=O)(=O)c1ccc(C(=O)NCCN=C2NS(=O)(=O)c3ccccc32)cc1`: the “hERG current change (%, negative = inhibition) at 10uM” value stood at 29.6%.

Turning to `CN(C)C(CNC(=O)CCc1nc2sc3c(c2c(=O)[nH]1)CCCC3)c1ccccc1` (centres unmarked), the “hERG current change (%, negative = inhibition) at 10uM” value is -7.87%.

Turning to `COc1ccc(C(=O)NNC(=O)C2CCN(S(=O)(=O)c3ccc(C)cc3)CC2)cc1`, the “hERG current change (%, negative = inhibition) at 10uM” value was found to be 12.9%.

In the case of `Cc1ccc(C(=O)C(C)OC(=O)C2CC(=O)N(C3CCCCC3)C2)cc1` (centres unmarked), the “hERG current change (%, negative = inhibition) at 10uM” value is recorded as -11.2%.

Turning to `CC(=O)c1cccc(NC(=O)c2ccc(C(=O)Nc3cccc(C(C)=O)c3)nc2)c1`, the “hERG current change (%, negative = inhibition) at 10uM” value came out at 12.6%.

As for `COc1ccc(Br)c(C(=O)NCCC(C)C)c1`, the “hERG current change (%, negative = inhibition) at 10uM” value worked out at 0.917%.

For the compound `S=c1[nH]nc(Nc2ccccc2)s1`, the “hERG current change (%, negative = inhibition) at 10uM” value turned out to be 23.2%.

Take `CCn1c(CCNC(=O)c2ccc(OC)cc2)nnc1SCc1ccc(Cl)cc1Cl`: the “hERG current change (%, negative = inhibition) at 10uM” value was -65.6%.
